The chains are these.
B1: LINE1-mini (parent)
chain: GGCAGAGCUCAACACAGCGUGGCAAAGUGGCUGUGGCUAGACUGCC

Results on 56 variants are retold here after the RNAGym collection of RNA variant scans (doi:10.7554/elife.90254).

Read counts are not given, so values of variants with three or more changes are uncertain.

The variants in the data set derive from B1. Briefly: self-cleavage, relative activity (ratio to wild type); higher = more cleavage; in vitro, sequencing; the parent is a self-cleaving ribozyme.
In the case of GGCAGAGCUCAACGCAGCGUGACAAAGUGCCUGUGGCUAGGCUGCC [A14G G22A G30C A41G], the self-cleavage was 0.15.
For GGCAGAGCUCAACUCAGCGUGGCACAGUGGCUGUGGCUCGACUGCC [A14U A25C A39C], the self-cleavage worked out at 0.11.
Take GGCAGAGCUCAACGCAGCGUGGCAAAGUAGCUAUGGCAAGACUGCC [A14G G29A G33A U38A]: the self-cleavage worked out at 0.02.
With GGCAGAGCUCAACGCGGCGUGGCAAAGUGGCUUUGGCUAGACUGCC [A14G A16G G33U] the figure was 0.01.
As for GGCAGAGCUCAACGCAGCGUGGCAGUGUGGCUGUGGCUACACUGCU [A14G A25G A26U G40C C46U], the self-cleavage was 0.01.
As for GGCAGAGCUCAACGCAGCGUGGCAGACUGGCUGUGGCUAGACUGCC [A14G A25G G27C], the figure is 0.05; as for GGCAGAGCUCAACGCAGCGUCGCAAAGUGGCAGUGGCUAGUUUGCC [A14G G21C U32A A41U C42U], 0.
As to GGCAGAGCUCAACUCAGCGUGGCACAGUGGCUGUGGCUAAACUGCC [A14U A25C G40A], the self-cleavage amounted to 0.04.
As for GGCAGAGCUCAACGCAGCGUGGCAAAGUGGCUUUGGCUAGACCGCC [A14G G33U U43C], the figure is 0.04; as for GGCAGAGCUCAACGCAGGGUGCCAAAGUGGCUGUGGCUAGACUGCC [A14G C18G G22C], 0.35.
As to GGCAGAGCUCAACUCUGCGUGGCAAAGUGGCUGUGGCUAGACUACC [A14U A16U G44A], the self-cleavage turned out to be 0.03.
With GGCAGAGCUCAACUCGGCGUGGCAAAUUGGCUGUGGCUAGACUGCC [A14U A16G G27U] the figure was 0.23.
For the variant GGCAGAGCUCAACGCAGCAUGGCAAAGUGGCCAUGGCUAGACUGCC [A14G G19A U32C G33A], the self-cleavage was 0.
As to GGCAGAGCUCAACGCAUCGUGGCAAAGUGGCUGUGGCUAGAUUGCA [A14G G17U C42U C46A], the self-cleavage amounted to 0.01.
Consider GGCAGAGCUCAACCCAGCGUGUCAAAGUGGCUGUGGCGAGGCUACA [A14C G22U U38G A41G G44A C46A], for which the self-cleavage turned out to be 0.
As for GGCAGAGCUCAACGAAGUGUGGCAAAGUAGCUGUGGCUAGACUGCC [A14G C15A C18U G29A], the figure is 0.04; as for GGCAGAGCUCAACCCAGCGUGGCAAAGUGGCUGUGGCUAGACUUUC [A14C G44U C45U], 0.03; as for GGCAGAGCUCAACUCUGCGUGGCAAAGUGGCUGUGUCUGGACUGCC [A14U A16U G36U A39G], 0.02.
Consider GGCAGAGCUCAACGCCGCGUGGCAAAGCGGAUGUGGCCAGACUGGC [A14G A16C U28C C31A U38C C45G], for which the self-cleavage was determined as 0.01.
As for GGCAGAGCUCAACGCAGCGUGGCAAAGUGGCUGUGGCAAGACUGUC [A14G U38A C45U], the self-cleavage was 0.28.
Regarding GGCAGAGCUCAACGUAGCGUGGCAAAGUCGGUGUGGCUAGAUUGCC [A14G C15U G29C C31G C42U], the self-cleavage was determined as 0.04.
With GGCAGAGCUCAACCCAGCGUGGCAAAGCGGCUGUGGCAACACUGCU [A14C U28C U38A G40C C46U] the figure was 0.06; with GGCAGAGCUCAACGCAUCGUGGCAAAGUGGCUGUGGCUAUACUGCC [A14G G17U G40U], 0.34.
With GGCAGAGCUCAACUCAGCGUGGCGAAAUGGCUGUGGCUCGACUGCC [A14U A24G G27A A39C] the figure was 0.03; with GGCAGAGCUCAACGCAGAGUGGCAAAGUGACUGUGGCUAGACUGCC [A14G C18A G30A], 0.69.
As for GGCAGAGCUCAACGCAGCGUUGCAAAGUGGCUGUGGCUAGAUUGCC [A14G G21U C42U], the figure is 0.17; as for GGCAGAGCUCAACGCAGCGUGGCAAAGCAGCUGUGGCUAGACUGCC [A14G U28C G29A], 0.22; as for GGCAGAGCUCAACGCAGGGUGGUAAAGUGGCUGUGGCUACACUGCC [A14G C18G C23U G40C], 0.07.
For the variant GGCAGAGCUCAACGCAGCGUGGCAAAGUGGCUGUGGCUCGACUGUC [A14G A39C C45U], the self-cleavage stood at 0.04.
In the case of GGCAGAGCUCAACGCAGCGUGGCCAAGUGGCUGUGGCUAGACAGCC [A14G A24C U43A], the self-cleavage was 0.01.
For GGCAGAGCUCAACGCAGCGUGGCAAAGUGGGUUUGGCUAGAGGGCC [A14G C31G G33U C42G U43G], the self-cleavage worked out at 0.02.
As for GGCAGAGCUCAACGCAGCGUGGCACAGUGGCUGUGGCUAAACUGCC [A14G A25C G40A], the figure is 0.03; as for GGCAGAGCUCAACGCACCGUGGCAAAGUGGCUGGGGCUAGACUCCC [A14G G17C U34G G44C], 0.01.
With GGCAGAGCUCAACGCAGCGGGGCGAAGUGGCUGUGGAUAGACUUCC [A14G U20G A24G C37A G44U] the figure was 0.03.
With GGCAGAGCUCAACGCAGCGUGGCAAAGUGGCUGUGGCUAGACUCGC [A14G G44C C45G] the figure was 0.08; with GGCAGAGCUCAACGCAGCGUGGCAAAGGGGCUUUGGCUAGACUGCU [A14G U28G G33U C46U], 0.02; with GGCAGAGCUCAACGGAGCGUGGCAAAGUAGCUGUGCCUAGACUGCC [A14G C15G G29A G36C], 0.03.
For the variant GGCAGAGCUCAACCCAGCGUGGCAAAGUGGCUAUGGCUAGCCUGCC [A14C G33A A41C], the self-cleavage was 0.02.
As for GGCAGAGCUCAACGCAGCGUGGAAAAGUGGCUGUGGCAAGACUGCC [A14G C23A U38A], the figure is 0.2.
With GGCAGAGCUCAACGCUGCGUGGCAAACUGGCUGUGGGUAGACUCCC [A14G A16U G27C C37G G44C] the figure was 0.
Turning to GGCAGAGCUCAACUCAGCGUGGCAGAGUGGCUCUGGCUCGACUGCC [A14U A25G G33C A39C], the self-cleavage is 0.
Consider GGCAGAGCUCAACCCAGCGUGGCAAAGUUGCUGUGGCUAGACUUCC [A14C G29U G44U], for which the self-cleavage stood at 0.03.
For the variant GGCAGAGCUCAACGCAGCGUGUCAUAGUGGCUGUGGCUAGACUGCC [A14G G22U A25U], the self-cleavage was determined as 0.27.
With GGCAGAGCUCAACGAAACGUAGCAAUAUGGCUAUGGCUUGACUGCC [A14G C15A G17A G21A A26U G27A G33A A39U] the figure was 0.02; with GGCAGAGCUCAACCCAGCGUGGCAAAGAGGCUGUGGCUGGACUGCC [A14C U28A A39G], 0.03.
As for GGCAGAGCUCAACGCAGCGUGGCAACGUGGAUGUGGCUAGACUGCC [A14G A26C C31A], the figure is 0.06; as for GGCAGAGCUCAACGCAGGGUUUCAACGUGGCUGUGGCUAGACUGCC [A14G C18G G21U G22U A26C], 0.2; as for GGCAGAGCUCAACGCUGCGUAGCAAAGUGGCUGUGGCUAGACUGCC [A14G A16U G21A], 0.04.
As for GGCAGAGCUCAACGCAGCGUGGCAAAGUGUCUGUGGCUAGACUACC [A14G G30U G44A], the figure is 0.45; as for GGCAGAGCUCAACGCAGCGAGGCAAAGUGACUGUUGCUAGACUGCC [A14G U20A G30A G35U], 0.04; as for GGCAGAGCUCAACCCAGCGUGGCAAAGGGCCUGUGGCUAGACUGCC [A14C U28G G30C], 0.02.
Consider GGCAGAGCUCAACGCAGCGUGGCAAAGUGGGUGGGGCUAGACUGCC [A14G C31G U34G], for which the self-cleavage stood at 0.17.
Turning to GGCAGAGCUCAACUCCGCGUGGCAAGGUGGCUGUGGCUCGAGUGUC [A14U A16C A26G A39C C42G C45U], the self-cleavage amounted to 0.03.
For the variant GGCAGAGCUCAACGCAGCGUGGCCAAUAGGCUGUGUCUAGACUGCC [A14G A24C G27U U28A G36U], the self-cleavage worked out at 0.04.
With GGCAGAGCUCAACCCAGCGGGGCAAAGUGGCUGUGGCUAGACUACC [A14C U20G G44A] the figure was 0.06; with GGCAGAGCUCAACGCAGCAUGGCAAAGUAGCUGUGGCUAGACUGCC [A14G G19A G29A], 1.29.
